Results as given in patent publication US20170137417A1 (priority 2014, published 2017).

Conditions: Log P, [b] LC-UV, neutral range, 0.001 molar ammonium acetate solution in water and acetonitrile as eluent

**Q.** For C#CCOc1ccc(F)c(F)c1C1CC(c2csc(C3CCN(C(=O)Nc4cc(C)ccc4C)CC3)n2)=NO1 (stereo not shown) [Example I-3], which chromatographic logP is on record?
**A.** 3.35
